Among all 52,000 compounds or so, about 1,700 (3.3%) were called active. No stated cut-off is given here; in the data, active means survival mostly below about 52% (no sharp cut-off); inactive means mostly above about 56%. Some of the results follow.
tested on: Wild type; test: S. aureus survival, RN4220 and DeltatarO strains – OD600, teichoic acid synthesis inhibitors, primary screen (AID 463173); settings: S. aureus RN4220 wild type/DeltatarO growth, OD600, 18 h, stronger effect = lower value, screened at 18.75 µg/mL (by protocol)

SMILES | survival
Cc1nnc2c3ccccc3nc(Nc3ccccc3C(=O)O)n12 | inactive: 83%
COc1ccc(S(=O)(=O)Nc2cc(-c3cn4ccc(C)cc4n3)ccc2C)cc1OC | inactive: 64%
CCn1ccc2cc(S(=O)(=O)N3CCC(C(=O)NCC(C)c4ccccc4)CC3)ccc21 (stereo unspecified) | inactive: 87%
CCOc1ccc(S(=O)(=O)NCc2ccc3c(c2)CCN3C(=O)c2ccc(C)cc2)cc1 | inactive: 77%
Cc1ccc(Cl)cc1NC(=O)c1nnn(Cc2ccccc2)c1N | inactive: 85%
Cc1ccc(-n2ncc(C(=O)NCc3ccccn3)c2C2CCN(C(=O)OC(C)(C)C)CC2)cc1C | inactive: 124%
CCc1nc2c(cnn2-c2ccccc2)c(=O)n1-c1ccc(Br)cc1 | inactive: 108%
COc1cccc(CNC(=O)C2CCN(Cc3cc4ccccc4n3Cc3ccccc3)CC2)c1OC | inactive: 88%
Cc1ccc(NC(=O)CSc2nc3ccccc3nc2Cc2ccccc2)c(Cl)c1 | inactive: 95%
CCN(CC)CCNC(=O)c1ccc(-c2nc(CN3CCc4ccccc43)c(C)o2)cc1 | inactive: 69%
CCOC(=O)c1cccc(NC(=O)CSc2cc(=O)n(C)c3ccccc23)c1 | inactive: 79%
Cc1ccc(CN2c3ccccc3-c3nc(SCC(=O)NCCc4ccccc4)ncc3S2(=O)=O)cc1 | active: 14%
O=C(Nc1ccc(C(F)(F)F)cc1)c1cc(S(=O)(=O)N2CCCc3ccccc32)ccc1F | inactive: 78%
CCOC(=O)c1ccc(Oc2nc(C)nc3c2oc2ccccc23)cc1 | inactive: 45%
O=C(CN1C(=O)C2(SCC(=O)N2c2cccc(F)c2)c2ccccc21)NCc1ccccc1Cl (stereo unspecified) | inactive: 80%
CC(=O)N1C(=O)NC(=O)C1(C)C | inactive: 102%
Clc1ccc(CN2CCc3nc(N4CCN(c5ccccn5)CC4)ncc3C2)cc1 | inactive: 68%
O=C(/C=C/c1ccccc1)Nc1nc2n(n1)C(c1ccc(Cl)cc1)C=C(c1ccccc1)N2 (stereo unspecified) | inactive: 49%
Cc1nnsc1C(=O)Oc1ccc(C#N)cc1 | inactive: 83%
COc1ccc(C2/C(=C(/O)c3ccccc3)C(=O)C(=O)N2CC(OC)OC)c(OC)c1 (stereo unspecified) | inactive: 96%
CCCOc1ccc(NC(=O)CC2C(=O)N(c3ccc(OC)cc3)C(=O)N2CCc2ccncc2)cc1 (stereo unspecified) | inactive: 88%
CCc1nc2ccccc2n1CCCCOc1cccc(C)c1 | active: 12%
Cc1ccc(/C(C#N)=C\c2cc(C)n(C)c2C)cc1 | inactive: 104%

SMILES | survival
CC(C)(C)c1ccc(S(=O)(=O)c2cnc(SCC(=O)Nc3ccc4c(c3)OCCO4)[nH]c2=O)cc1 | inactive: 126%
CC(C)CC(=O)NCC(c1ccc2c(c1)OCO2)N1CCN(c2ccc(F)cc2)CC1 (stereo unspecified) | inactive: 146%
CCCS(=O)(=O)c1nc(S(=O)(=O)c2ccc(C)cc2)c(NCCCOC(C)C)s1 | inactive: 124%
COc1ccc2nc(SCC(O)c3cccc(Br)c3)[nH]c2c1 (stereo unspecified) | inactive: 84%
O=C(CCCSc1nc(-c2ccco2)cc(C(F)(F)F)n1)NCC1CCCO1 (stereo unspecified) | inactive: 108%
CC1=NN(C(C#N)c2ccccc2)C(C)(C)C1 (stereo unspecified) | inactive: 113%
N#Cc1cc(Cl)c(N2CCCCCC2)cc1C#N | inactive: 110%
COc1cccc2c1cc1c(=O)n(CC(=O)N3CCN(c4ccc(F)cc4)CC3)nc(C)n12 | inactive: 81%
CCN(CC)C(=O)CSc1nc2cc3c(cc2c(=O)n1CCCC(=O)NCc1ccc2c(c1)OCO2)OCO3 | inactive: 119%
COc1ccc(-c2cn3c(n2)sc2cc(C(=O)NCCCc4ccccc4)ccc23)cc1 | inactive: 86%
Cc1nn(-c2ccc(N3CCCCC3)nn2)c(C)c1CCC(=O)NCc1ccccc1 | inactive: 76%
O=C(Cn1nc(N2CCN(c3ccccc3)CC2)ccc1=O)NCc1ccccc1F | inactive: 71%
Cc1ccc(Sc2ccc(N3CCCC(C(=O)Nc4ccc(F)cc4)C3)nn2)cc1 (stereo unspecified) | inactive: 60%
N#C/C(=C/c1cccs1)C(=O)O | inactive: 106%
Cc1ccc(-c2nnc(SCC(=O)NC(C)(C)C)nc2-c2ccc(C)cc2)cc1 | inactive: 71%
Cc1cccc(C(=O)Nc2ccccc2OCc2cc(=O)n3ccccc3n2)c1 | inactive: 63%
COc1ccc(C)cc1NS(C)(=O)=O | inactive: 105%
CCOc1ccc(NC(=O)c2cn(C3CCCCC3)c(=O)c3c2c2ccccc2n3C)cc1 | inactive: 78%
O=C(CN1C(=O)COc2ccccc21)c1ccc(Cl)cc1 | inactive: 106%
CCOc1ccc(C(=O)N(Cc2nc(-c3cccc(C)c3)no2)C(C)C)cc1 | active: 2%
Cn1c(=O)c2c(nc(NCCc3ccccc3)n2Cc2ccccc2Br)n(C)c1=O | inactive: 74%
COc1ccc(-c2nc(CN3CCC(C(=O)NCc4ccc(C)cc4)CC3)c(C)o2)cc1OC | inactive: 95%
CCOc1ccc(CNC(=O)CCCn2c(=O)c3cccn3c3ccccc32)cc1 | inactive: 57%

SMILES | survival
Cc1nn(-c2ccccc2)c(Cl)c1C(N)=O | inactive: 96%
NC(=O)c1c(NC(=O)CN2CCCC2)sc2c1CCCC2 | inactive: 96%
CCOc1ccccc1Nc1nc2ccccc2nc1NS(=O)(=O)c1ccc(Cl)cc1 | inactive: 72%
COc1ccc(C(=O)n2nc(-c3cccnc3)nc2NCc2ccccc2)cc1OC | inactive: 87%
COc1ccc(CCNC(=O)C(=O)NCC(c2cccs2)S(=O)(=O)c2cccs2)cc1 (stereo unspecified) | inactive: 83%
Cn1c(=O)c2[nH]c(=S)[nH]c2n(C)c1=O | inactive: 109%
CC(=O)N1CCCc2cc(S(=O)(=O)N3CCC(C(=O)Nc4c(C)cccc4C)CC3)ccc21 | inactive: 78%
Cc1cc(C)c(NC(=O)CSc2nc3nccnc3c(=O)n2CCc2c[nH]c3ccccc23)c(C)c1 | inactive: 85%
CCOc1cccc(C(=O)Nc2ccc3oc(-c4ccncc4)nc3c2)c1 | inactive: 73%
COc1ccc(-c2cc(OC(=O)c3ccccc3Cl)c3c(C)oc(C)c3c(=O)c2)cc1OC | inactive: 77%
COc1cc(OC)c(NS(=O)(=O)c2c(C)nc3sc(C)cn3c2=O)cc1Cl | inactive: 88%
CCc1nnc(SCc2cccc(Cl)c2)c2cc3sccc3n12 | active: 2%
COc1ccc2c(CNC3CCCCCC3)c(C(=O)O)n(Cc3ccc(C)cc3)c2c1 | inactive: 79%
Cc1ccc(-c2noc(-c3cccnc3NCc3ccco3)n2)cc1 | inactive: 88%
COc1ccc(CNC(=O)CN2C(=O)COc3ccc(S(=O)(=O)N4CCCCC4)cc32)cc1 | inactive: 96%
Cc1cc(F)ccc1NC(=O)Cn1nc(N2CCN(c3ccccc3)CC2)ccc1=O | inactive: 87%
Cc1nc2ccccc2n1C(=O)N(C)C | inactive: 116%
CC1CCN(C(=O)COc2ccccc2Cl)CC1 | inactive: 94%
O=C(Cn1cc(SCc2ccc(F)cc2)c2ccccc21)N1CCCCC1 | inactive: 87%
Cc1ccc(Cn2c(C)c3cnn(CC(=O)O)c(=O)c3c2C)cc1 | inactive: 77%
CCCSc1oc(-c2cccs2)nc1S(=O)(=O)c1ccc(C)cc1 | inactive: 39%
O=C(Nc1cccc(C(=O)OCc2cc(=O)n3c4c(sc3n2)CCCC4)c1)c1ccc(Cl)cc1 | inactive: 74%
COc1ccc(NC(=O)Cn2c(=O)n(CCCCCC(=O)NCc3ccc4c(c3)OCO4)c(=O)c3sccc32)cc1Cl | inactive: 89%

SMILES | survival
COc1ccc2c(c1)c(CC(=O)Nc1cc(C)cc(C)c1)c(C)n2C(=O)c1ccc(Cl)cc1 | inactive: 78%
CCN1C(=O)C2C(c3ccc(OC)cc3)NC(CC)(C(=O)OC)C2C1=O (stereo unspecified) | inactive: 96%
O=C(NCc1ccccc1)c1cnc2sc(N3CCCC3)nn2c1=O | inactive: 73%
COc1ccc(C)cc1NC(=O)c1sc2nc(-c3ccc(F)cc3)cn2c1C | inactive: 80%
CCN(CC)C(=O)c1sc2c(c1C)c(=O)n(Cc1ccccc1)c(=O)n2Cc1cc(C)ccc1C | inactive: 45%
CC(c1nnnn1CCc1ccccc1)N1CCN(c2cccc(C(F)(F)F)c2)CC1 (stereo unspecified) | inactive: 135%
CCS(=O)(=O)N1CCN(CC2CC3C=CC2C3)CC1 (stereo unspecified) | inactive: 109%
Cc1cc2c(cc1S(=O)(=O)C(C)CC(=O)NC1CCC(C)CC1)OCC(=O)N2 (stereo unspecified) | inactive: 69%
CCC(CC)NCc1ccc(OC)c(C)c1OC | inactive: 107%
Cc1cc(C)c2oc(C(=O)Nc3ccc(S(=O)(=O)Nc4ncccn4)cc3)cc(=O)c2c1 | inactive: 87%
O=C(CCCn1ncn2c(cc3occc32)c1=O)NCc1ccccc1F | inactive: 88%
COc1ccccc1NC(=O)c1sc(-c2ccc(Cl)cc2)cc1N | inactive: 129%
CCc1ccc2c(c1)NC(c1ccc(F)cc1)=NC(c1ccncc1)=N2 | inactive: 104%
O=C(Nc1ccccc1C(F)(F)F)c1cc2nc(-c3ccccc3)cc(-c3ccccc3)n2n1 | inactive: 67%
CCc1ccc(OC(=O)CSc2nnc(-c3ccc(OC)c(OC)c3)o2)cc1 | inactive: 89%
O=C(NCCc1ccccc1)c1ccc2c(c1)N(Cc1ccc(F)cc1Cl)C(=O)CS2 | inactive: 67%
CCCc1nnc(SCC(=O)N2CCCc3ccccc32)n1CC | inactive: 108%
Cc1ccc(NC(=O)N2CCC3(CC2)Oc2ccccc2C(=O)N3Cc2ccc(F)cc2)cc1 | inactive: 78%
CCNC(=O)c1ccc2c(c1)sc1nc(-c3cccc(OC)c3)cn12 | inactive: 92%
CN(C)c1ccc(-c2nnc(-c3ccc(Cl)cc3)o2)cc1 | inactive: 106%
CC(Oc1ccccc1)C(=O)Nc1cccc(-c2cn3cccnc3n2)c1 (stereo unspecified) | inactive: 84%
Cc1c2cnn(CC(=O)NC(C)C)c(=O)c2c(C)n1Cc1cccc(Cl)c1 | inactive: 81%

Source: PubChem BioAssay AID463173 (ICCB-Longwood Screening Facility, Harvard Medical School, 2010)
